Legend:
human GPRC5A [1] = biological target: T1, human GPRC5A (human, UniProt Q8NFJ5 1-357); experiment: FACS, CHOK1-hGPRC5A cells
T1 construct: Printed as Uniprot: Q8NFJ5-1; also called hGPRC5A; on CHOK1-hGPRC5A cells
T1 sequence: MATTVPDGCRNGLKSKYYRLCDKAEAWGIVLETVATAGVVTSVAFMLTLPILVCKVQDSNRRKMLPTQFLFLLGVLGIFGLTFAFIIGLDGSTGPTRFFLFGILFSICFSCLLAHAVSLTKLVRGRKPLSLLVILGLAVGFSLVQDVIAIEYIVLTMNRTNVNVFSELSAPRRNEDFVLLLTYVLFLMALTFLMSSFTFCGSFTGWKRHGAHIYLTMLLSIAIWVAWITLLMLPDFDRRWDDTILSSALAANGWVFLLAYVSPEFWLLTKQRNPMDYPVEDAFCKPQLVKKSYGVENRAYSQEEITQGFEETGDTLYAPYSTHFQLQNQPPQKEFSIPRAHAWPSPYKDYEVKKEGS

hGPRC5D-LVP protein [2] = biological target: T2, hGPRC5D-LVP protein (human, UniProt Q9NZD1 1-345, limits assumed); experiment: competitive ELISA, competitor Biotin-5F11; antibody at 50.00 nM
hGPRC5D-LVP protein [3] = biological target: T2, hGPRC5D-LVP protein; experiment: competitive ELISA, competitor Biotin-5F11; antibody at 16.67 nM
hGPRC5D-LVP protein [4] = biological target: T2, hGPRC5D-LVP protein; experiment: competitive ELISA, competitor Biotin-5F11; antibody at 5.56 nM
hGPRC5D-LVP protein [5] = biological target: T2, hGPRC5D-LVP protein; experiment: competitive ELISA, competitor Biotin-5F11; antibody at 0 nM
human GPRC5C [6] = biological target: T3, human GPRC5C (human, UniProt Q9NQ84 24-441); experiment: FACS, CHOK1-hGPRC5C cells
T3 construct: also called hGPRC5C; on CHOK1-hGPRC5C cells
T3 sequence: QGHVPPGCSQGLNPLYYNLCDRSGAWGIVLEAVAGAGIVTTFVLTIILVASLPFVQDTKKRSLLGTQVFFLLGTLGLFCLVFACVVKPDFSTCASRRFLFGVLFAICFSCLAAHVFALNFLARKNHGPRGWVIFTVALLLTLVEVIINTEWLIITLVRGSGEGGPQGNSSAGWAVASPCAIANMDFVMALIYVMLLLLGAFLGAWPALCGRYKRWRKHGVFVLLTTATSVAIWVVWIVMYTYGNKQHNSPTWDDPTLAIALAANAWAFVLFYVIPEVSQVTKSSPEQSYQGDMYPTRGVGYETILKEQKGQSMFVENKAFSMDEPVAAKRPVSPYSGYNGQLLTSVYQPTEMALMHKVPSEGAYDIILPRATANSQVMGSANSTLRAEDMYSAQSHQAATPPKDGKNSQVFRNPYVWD
Experimental: (§1) The desired cells were scale-up cultured in a T-75 cell culture flask to the logarithmic growth phase. NCI-H929, MolP-8 and RPMI-8226 cells were collected and washed with PBS buffer 2 times. After counting the cells, the cell pellet was resuspended with [PBS+2% (w/v) BSA] blocking solution to 2×10⁶ cells/ml, and added to a 96-well FACS reaction plate at 50 μl/well, and then the chimeric antibody test sample was added at 50 μl/well, and incubated on ice for 1 h. […] The obtained mixture was centrifuged and washed 3 times with a PBS buffer, and FACS (FACS CantoII, purchased from BD Company) was used for detection and result analysis. Data analysis was performed by software (Flowjo) to obtain the mean fluorescence intensity (MFI) of the cells. Then a software (GraphPad Prism8) was used for analysis, the analysis results are shown in Table 9 and FIGS. 9A-9C, 10A-10C and 11A-11C.

human GPRC5A [7] = biological target: T1, human GPRC5A; experiment: FACS, CHOK1-hGPRC5A cells; remark: listed apart in the source
Experimental: as §1

human GPRC5C [8] = biological target: T3, human GPRC5C; experiment: FACS, CHOK1-hGPRC5C cells; remark: listed apart in the source
human GPRC5B [9] = biological target: T4, human GPRC5B (human, UniProt Q9NZH0 29-403); experiment: FACS, CHOK1-hGPRC5B cells
T4 construct: Printed as Uniprot: Q9NZH0-1; also called hGPRC5B; on CHOK1-hGPRC5B cells
T4 sequence: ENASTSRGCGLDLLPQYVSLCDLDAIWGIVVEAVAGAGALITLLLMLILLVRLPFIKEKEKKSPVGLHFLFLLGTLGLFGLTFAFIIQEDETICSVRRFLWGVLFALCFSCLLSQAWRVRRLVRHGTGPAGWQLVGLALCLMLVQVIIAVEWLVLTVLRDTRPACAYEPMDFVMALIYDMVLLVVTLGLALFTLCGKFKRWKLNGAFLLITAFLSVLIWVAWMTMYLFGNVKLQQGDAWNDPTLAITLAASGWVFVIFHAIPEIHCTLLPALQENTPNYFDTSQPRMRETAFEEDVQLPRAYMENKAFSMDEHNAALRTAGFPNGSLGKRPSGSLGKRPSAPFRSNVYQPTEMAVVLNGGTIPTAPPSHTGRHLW
Experimental: as §1

human GPRC5D [10] = biological target: T5, human GPRC5D (human, UniProt Q9NZD1 1-345); experiment: FACS, NCI-H929 cells
T5 construct: the cell line is named under assay; also called hGPRC5D; G protein coupled receptor C5 family subtype D
Experimental: as §1

human GPRC5D [11] = biological target: T5, human GPRC5D; experiment: FACS, MolP-8 cells
Experimental: as §1

hGPRC5D-LVP protein [12] = biological target: T2, hGPRC5D-LVP protein; experiment: competitive ELISA, competitor Biotin-5F11; antibody at 0.62 nM
human GPRC5B [13] = biological target: T4, human GPRC5B; experiment: FACS, CHOK1-hGPRC5B cells; remark: listed apart in the source
hGPRC5D-LVP protein [14] = biological target: T2, hGPRC5D-LVP protein; experiment: competitive ELISA, competitor Biotin-5F11; antibody at 0.07 nM
hGPRC5D-LVP protein [15] = biological target: T2, hGPRC5D-LVP protein; experiment: competitive ELISA, competitor Biotin-5F11; antibody at 1.85 nM
hGPRC5D-LVP protein [16] = biological target: T2, hGPRC5D-LVP protein; experiment: competitive ELISA, competitor Biotin-5F11; antibody at 0.21 nM
human GPRC5D [17] = biological target: T5, human GPRC5D; experiment: FACS, RPMI-8226 cells
Experimental: as §1

T2 sequence (Q9NZD1 whole entry): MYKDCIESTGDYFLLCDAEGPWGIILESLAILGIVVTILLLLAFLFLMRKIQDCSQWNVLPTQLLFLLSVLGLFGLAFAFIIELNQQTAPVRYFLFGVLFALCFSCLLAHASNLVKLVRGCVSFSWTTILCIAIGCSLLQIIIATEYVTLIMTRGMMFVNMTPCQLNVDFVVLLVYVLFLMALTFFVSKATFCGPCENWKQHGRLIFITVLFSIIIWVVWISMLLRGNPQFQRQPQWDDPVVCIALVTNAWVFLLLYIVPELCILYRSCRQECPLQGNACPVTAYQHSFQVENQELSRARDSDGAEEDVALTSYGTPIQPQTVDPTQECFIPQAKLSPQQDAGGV
T5 sequence (Q9NZD1 whole entry): as above

B1: GPRC5D-Mab02scFv-Fc (scFv)
scFv: QVQLQQPGAELVKPGASVKMSCKASGYTFSSYWITWVKQRPGQGLDWIGDFYPRNGDTNYNKKFKNKATLTVDTSSSTAYMQLSSLTSEDSAVYYCARSRAYYGRRGFDYWGQGTTLTVSSGGGGSGGGGSGGGGSQIVLTQSPAIMSASPGEKVTMTCSAGSSVSYMYWYQQKPGSSPRVLIYDTSNLASGVPVRFSGSGSGTSYSLIISRMEAEDAATYYCQQWSNYPLTFGAGTKLELK[human IgG1 Fc with C220S (EU numbers) not shown]
notes: Human-mouse chimeric scFv-Fc; also called GPRC5D-mab02 chimeric antibody
binding result (human GPRC5A [1]): no binding
OD450 (hGPRC5D-LVP protein [2]): 0.34
OD450 (hGPRC5D-LVP protein [3]): 0.46
OD450 (hGPRC5D-LVP protein [4]): 0.59
OD450 (hGPRC5D-LVP protein [5]): 1.21
Maximum mean fluorescence intensity (human GPRC5C [6]): 71
Maximum mean fluorescence intensity (human GPRC5A [7]): 72
binding result (human GPRC5C [8]): no binding
Maximum mean fluorescence intensity (human GPRC5B [9]): 77
EC50 (human GPRC5D [10]): 1.88 nM
Maximum mean fluorescence intensity (human GPRC5D [10]): 7360
EC50 (human GPRC5D [11]): 10.3 nM
Maximum mean fluorescence intensity (human GPRC5D [11]): 3340
OD450 (hGPRC5D-LVP protein [12]): 1.06
binding result (human GPRC5B [13]): no binding
OD450 (hGPRC5D-LVP protein [14]): 1.21
OD450 (hGPRC5D-LVP protein [15]): 0.85
OD450 (hGPRC5D-LVP protein [16]): 1.05
EC50 (human GPRC5D [17]): 2.2 nM
Maximum mean fluorescence intensity (human GPRC5D [17]): 535

B2: GPRC5D-Mab06scFv-Fc (scFv)
scFv: QVQLKQSGPGLVQPSQSLSITCTVSGFSLTSYGVNWIRQSPGKGLEWLGVIWSGGNTDYNAAFRSRLSISKDNSKSQVFFKMNSLQADDTAIYYCARGQLGRPYWYFDVWGTGTSVTVSSGGGGSGGGGSGGGGSDIVMTQSHKFMSTSVGDRVSITCKASQDVRTAVAWYQQKPGQSPKLLIYWASTRHTGVPDRFTGSRSGTDYTLTISSVQAEDLALYYCQQHYSTPLTFGAGTKLELK[human IgG1 Fc with C220S (EU numbers) not shown]
notes: Human-mouse chimeric scFv-Fc; also called GPRC5D-mab06 chimeric antibody
binding result (human GPRC5A [1]): no binding
OD450 (hGPRC5D-LVP protein [2]): 0.16
OD450 (hGPRC5D-LVP protein [3]): 0.19
OD450 (hGPRC5D-LVP protein [4]): 0.29
OD450 (hGPRC5D-LVP protein [5]): 0.86
Maximum mean fluorescence intensity (human GPRC5C [6]): 45
Maximum mean fluorescence intensity (human GPRC5A [7]): 76
binding result (human GPRC5C [8]): no binding
Maximum mean fluorescence intensity (human GPRC5B [9]): 53
EC50 (human GPRC5D [10]): 0.73 nM
Maximum mean fluorescence intensity (human GPRC5D [10]): 5970
EC50 (human GPRC5D [11]): 3.94 nM
Maximum mean fluorescence intensity (human GPRC5D [11]): 3920
OD450 (hGPRC5D-LVP protein [12]): 0.48
binding result (human GPRC5B [13]): no binding
OD450 (hGPRC5D-LVP protein [14]): 0.78
OD450 (hGPRC5D-LVP protein [15]): 0.37
OD450 (hGPRC5D-LVP protein [16]): 0.66
EC50 (human GPRC5D [17]): 2.43 nM
Maximum mean fluorescence intensity (human GPRC5D [17]): 653

B3: GPRC5D-Mab07scFv-Fc (scFv)
scFv: QVQLQQSGAEVVRPGTSVKVSCKASGYAFTNYLIEWLKQRPGQGLEWIGMINPGRGNTNYNEKFKGKATLTADKASSTAYMQISSLTSEDSAVYFCARNWDVWGQGTTLTVSSGGGGSGGGGSGGGGSDVVMTQTPLSLPVSLGDQASISCRSSQSLVYSNGNTYLHWYLQKPGQSPKLLIYKVSNRFSGVPDRFSGSGSGTDFTLKISRVEAEDLGVYFCSQSTHVPWTFGGGTKLEIK[human IgG1 Fc with C220S (EU numbers) not shown]
notes: Human-mouse chimeric scFv-Fc; also called GPRC5D-mab07 chimeric antibody
binding result (human GPRC5A [1]): no binding
OD450 (hGPRC5D-LVP protein [2]): 0.25
OD450 (hGPRC5D-LVP protein [3]): 0.29
OD450 (hGPRC5D-LVP protein [4]): 0.37
OD450 (hGPRC5D-LVP protein [5]): 0.79
Maximum mean fluorescence intensity (human GPRC5C [6]): 42
Maximum mean fluorescence intensity (human GPRC5A [7]): 86
binding result (human GPRC5C [8]): no binding
Maximum mean fluorescence intensity (human GPRC5B [9]): 48
EC50 (human GPRC5D [10]): 0.77 nM
Maximum mean fluorescence intensity (human GPRC5D [10]): 5240
EC50 (human GPRC5D [11]): 1.87 nM
Maximum mean fluorescence intensity (human GPRC5D [11]): 2810
OD450 (hGPRC5D-LVP protein [12]): 0.59
binding result (human GPRC5B [13]): no binding
OD450 (hGPRC5D-LVP protein [14]): 0.83
OD450 (hGPRC5D-LVP protein [15]): 0.47
OD450 (hGPRC5D-LVP protein [16]): 0.73
EC50 (human GPRC5D [17]): 2.3 nM
Maximum mean fluorescence intensity (human GPRC5D [17]): 440
